Inconclusive results and toxic doses are left out. The source holds more than one record for some entries. The list is limited to them. There may be further records. The values listed for one entry differ, and nothing given here explains why; dose, time, organism, isomer or construct need not be as stated for each record.
Test system: BDF1 mice, P388 leukemia ip, median survival T/C
Assay: NCI In Vivo Anticancer Drug Screen. Data for tumor model P388 Leukemia (intraperitoneal) in B6D2F1 (BDF1) mice
Settings: endpoint: median survival time, higher = longer survival
In short: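 Steps: implant the tumour, treat one group with compound and another with vehicle, record survival, then divide treated by control.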

COc1cc2c[n+](C)c3c4cc5c(cc4ccc3c2cc1OC)OCO5
T/C (dose: 2.0 mg/kg/injection, schedule: Q01DX009 (ip), vehicle: water): 122 % of control and 165 % of control
T/C (dose: 4.0 mg/kg/injection, schedule: Q01DX009 (ip), vehicle: water): 104 % of control and 180 % of control
T/C (dose: 8.0 mg/kg/injection, schedule: Q01DX009 (ip), vehicle: water): 122 % of control and 190 % of control

Nc1ccc(C(=O)Nc2ccc(N(CCCl)CCCl)cc2)cc1
T/C (dose: 25.0 mg/kg/injection, schedule: Q01DX009 (ip), vehicle: saline): 109 % of control and 166 % of control

Nc1nc(N)c2c(Cl)c(CNc3ccc(Cl)c(Cl)c3)ccc2n1
T/C (dose: 200.0 mg/kg/injection, schedule: Q04DX003 (ip), vehicle: water): 102 % of control and 157 % of control

COc1cccc2c1C(=O)c1c(O)c3c(c(O)c1C2=O)C[C@@](O)(C(=O)CO)C[C@@H]3OC1CC(NC(=S)Nc2ccc3ccccc3c2)C(O)C(C)O1 (some centres not stated)
T/C (dose: 12.5 mg/kg/injection, schedule: Q01DX009 (ip), vehicle: saline): 94 % of control and 150 % of control

O=S(=O)(Sc1ccc(N(CCCl)CCCl)cc1)c1ccc(N(CCCl)CCCl)cc1
T/C (dose: 200.0 mg/kg/injection, schedule: Q01DX009 (ip), vehicle: saline with Tween-80): 115 % of control and 150 % of control

— PubChem BioAssay AID328 (DTP/NCI, 2004)
